Experimental data from PubChem BioAssay AID485294 (National Center for Advancing Translational Sciences (NCATS), 2010).
Among all 370,000 compounds or so, about 150 (0.041%) were called active. The shares of active, inactive and inconclusive entries below differ from those in the screen. Calls come from the whole dose curve; as a rule, active = well fitted inhibition curve with a large enough effect; inconclusive = small, poorly fitted or top-dose-only effect; inactive = flat fitted curve, though single readings scatter. Potencies of inconclusive entries are left out as doubtful fits.

target: Beta-lactamase (Escherichia coli (strain K12)) (UniProt P00811); assay: qHTS Inhibitors of AmpC Beta-Lactamase (assay with detergent); conditions: AmpC hydrolysis of nitrocefin, absorbance 480 nm, 0.01% Triton; activity change, negative = inhibition: at 114 µM (top of the series); note: nearly all actives have a fitted effect of over 25% in size;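 for activity change, negative = inhibition: 0% = no-compound wells and -100% = no-enzyme wells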
In short: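 20 mM phosphate pH 7.0 + 0.01% (detergent screen) or 0.0001% Triton X-100; 5.3 nM AmpC reagent; cpd preinc 15 min RT; nitrocefin (800 uM stock) to start; A480 q20 s × 4 min; Activity was normalised to no-enzyme and no-compound control wells.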
Potency is the fitted concentration of half-maximal effect; tags give direction and shape of the fitted curve.

Sequence of UniProt P00811 (P00811 whole entry, looked up): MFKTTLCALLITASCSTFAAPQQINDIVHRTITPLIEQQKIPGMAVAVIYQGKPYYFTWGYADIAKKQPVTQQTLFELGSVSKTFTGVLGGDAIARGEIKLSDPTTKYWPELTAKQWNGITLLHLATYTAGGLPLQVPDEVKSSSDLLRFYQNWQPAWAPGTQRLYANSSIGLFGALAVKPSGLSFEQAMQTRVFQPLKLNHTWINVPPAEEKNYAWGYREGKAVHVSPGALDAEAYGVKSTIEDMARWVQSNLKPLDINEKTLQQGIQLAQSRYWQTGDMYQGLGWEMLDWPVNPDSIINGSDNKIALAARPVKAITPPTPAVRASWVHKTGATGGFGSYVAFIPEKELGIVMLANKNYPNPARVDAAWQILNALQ

SMILES	activity change, negative = inhibition	Potency
O=C1CSCC(=O)N1Cc1ccc(Cl)cc1Cl	inactive: -2.48%	–
Nc1nc(SCC(=O)c2ccc(Br)s2)n[nH]1	–	inconclusive [inhibitor, single point]
Cc1ccc(NC(=O)CSc2nc3ccccc3c(=O)n2CCC(=O)NC2CCCCC2)cc1C	inactive: 6.63%	–
O=C(O)[C@@H]1CCCN1C(=O)c1ccccc1N1C(=O)[C@@H]2Cc3c([nH]c4ccccc34)C(c3cccc(Cl)c3)N2C1=O (stereo not given in full)	–	inconclusive [inhibitor, single point]
Cc1ccc(C2/C(=C(\O)c3ccc4c(c3)OCCO4)C(=O)C(=O)N2Cc2cccnc2)cc1 (stereo not given)	–	inconclusive [inhibitor, partial curve]
CC(C)[C@@H](C(=O)NCC1CCCO1)N1C(=O)N2CCc3c([nH]c4ccccc34)[C@@]2(C)C1=O (stereo not given in full)	–	inconclusive [inhibitor, full curve, poor fit]
COc1cc(C(=O)Nc2ccc(Cl)c(C(F)(F)F)c2)cc(OC)c1OC	–	inconclusive [inhibitor, full curve, poor fit]
COc1cc(O)oc1C=Nc1ccc(C(F)(F)F)cc1	inactive: -4.18%	–
O=C(Nc1nccs1)c1cc2c(s1)-c1ccccc1OC2	–	inconclusive [inhibitor, full curve, poor fit]
CCNS(=O)(=O)c1ccc(NC(=O)Nc2ccc3c(c2)OCO3)cc1	–	inconclusive [inhibitor, full curve, poor fit]
CC(=O)c1ccc(NC(=O)CSc2nnc(-c3ccco3)c(-c3ccco3)n2)cc1	inactive: -6.35%	–
CCCC(=O)OCC(=O)c1[nH]c(C)c(C(C)=O)c1C	–	inconclusive [inhibitor, full curve, poor fit]
NC(=O)C1CCN(C(=O)c2cc3n(n2)C(C(F)(F)F)CC(c2ccco2)N3)CC1 (stereo not given)	–	inconclusive [inhibitor, full curve, poor fit]
Cn1c(=O)c2c(nc(NC3CCCCC3)n2CC(=O)C23CC4CC(CC(C4)C2)C3)n(C)c1=O	–	inconclusive [inhibitor, full curve, poor fit]
CCOc1cc(CNCCO)cc(Br)c1OCc1ccc(Cl)cc1	inactive: -3.53%	–
O=C(CN1C(=O)C2C3C=CC(C3)C2C1=O)NCCN1CCCc2ccccc21 (stereo not given)	–	inconclusive [inhibitor, full curve, poor fit]
CN(C)c1ccc(C2C3CCCc4ccccc4C3=NN2C)cc1 (stereo not given)	inactive: 7.49%	–
COc1ccc(NC(=O)CN(C)Cc2cccs2)cc1Cl	–	inconclusive [inhibitor, single point]
COc1ccc(-n2ncc(C(=O)N3CCN(C4CCCCC4)CC3)c2C2CCN(C(=O)OC(C)(C)C)CC2)cc1	inactive: -0.705%	–
CCCCn1c(N)c(N(CCOC)C(=O)COC(=O)C(C)Oc2ccc(Cl)cc2)c(=O)[nH]c1=O (stereo not given)	–	inconclusive [inhibitor, partial curve, poor fit]
CC1CCCC(C)N1C(=O)CSc1nnnn1Cc1ccccc1 (stereo not given)	–	inconclusive [inhibitor, partial curve, poor fit]
O=S(=O)(NCc1ccco1)c1cccc2cccnc12	–	inconclusive [inhibitor, partial curve]

SMILES	activity change, negative = inhibition	Potency
CCOc1ccc(NC(=O)Cc2c(O)c3ccccc3[nH]c2=O)cc1	inactive: 3.58%	–
CC1N(O)C2CCCCCC2N1O (stereo not given)	–	inconclusive [inhibitor, full curve]
O=C(NCC1CCCO1)c1ccc(S(=O)(=O)Nc2ccccc2F)cc1 (stereo not given)	–	inconclusive [inhibitor, full curve]
CCc1ccc(NC(=O)C2CCCN2S(=O)(=O)c2ccc3nc(-c4ccccc4)[nH]c3c2)cc1 (stereo not given)	–	inconclusive [inhibitor, single point]
O=C(COc1cccc2c1CCN(Cc1ccc(Br)cc1)C2=O)N1CCOCC1	–	inconclusive [inhibitor, full curve]
O=C(CN1C(=O)/C(=C\C=C\c2ccccc2)SC1=S)Nc1ccc(F)cc1	–	inconclusive [inhibitor, partial curve, poor fit]
O=C1[C@H]2[C@@H](c3ccc(F)cc3)N3C(=O)N(c4cccc(Br)c4)C(=O)[C@@]3(Cc3ccccc3)[C@H]2C(=O)N1C1CCCCC1	–	inconclusive [inhibitor, single point]
COc1ccc(OCc2nnc(SCC(=O)NCc3ccco3)o2)cc1	–	inconclusive [inhibitor, full curve, poor fit]
Cc1cc(Oc2nnnn2-c2ccccc2)ccc1Cl	–	inconclusive [inhibitor, partial curve]
CC(C)C(=O)N1CCN(c2ccccc2NC(=O)COc2ccc(C3CCCCC3)cc2)CC1	inactive: -0.663%	–
COC(=O)c1ccc(C(=O)OC)c(NC(=O)c2c(-c3ccccc3)noc2C)c1	–	inconclusive [inhibitor, partial curve, poor fit]
CC(Nc1ccnc2cc(Cl)ccc12)c1ccc(S(N)(=O)=O)cc1 (stereo not given)	inactive: 7.34%	–
CCOC(=O)c1c(C)oc2nc(C)nc(NCCc3ccc(OC)c(OC)c3)c12	inactive: -10.9%	–
CC(C)(C(=O)N[C@H](CO)c1ccccc1)C(=O)N[C@H](CO)c1ccccc1	–	inconclusive [inhibitor, full curve, poor fit]
COC(=O)c1sc(N2C(=O)c3oc4ccc(C)cc4c(=O)c3C2c2ccc(O)c(OC)c2)nc1C (stereo not given)	–	inconclusive [inhibitor, single point]
O=C(CSc1ccc(Cl)cc1)NN=C1CCCCCC1	–	inconclusive [inhibitor, single point]
CCCCn1c(N)c(N(CCOC)C(=O)c2ccc(Cl)c(S(=O)(=O)N3CCCCC3)c2)c(=O)[nH]c1=O	–	inconclusive [inhibitor, partial curve]
CCOc1ccccc1NC(=O)c1cc(-c2cc(OC)c(OC)c(OC)c2)nc2ccccc12	inactive: -1.95%	–
Cc1ccc(C(=O)CSc2nnnn2C(C)C)c(C)c1	inactive: -0.506%	–
CCOc1ccc(CCNC(=O)COC(=O)COc2ccc(C#N)cc2)cc1OCC	–	inconclusive [inhibitor, partial curve, poor fit]
CCC(=O)Nc1nc2ccccc2n1CCN1CCOCC1	–	inconclusive [inhibitor, partial curve, poor fit]
CN(C)c1ccc(/C=C/C(=O)c2ccccc2)cc1[N+](=O)[O-]	–	inconclusive [inhibitor, single point]

SMILES	activity change, negative = inhibition	Potency
COc1ccc(NC(=O)CNC(=O)Cc2cccc3ccccc23)c(OC)c1	–	inconclusive [inhibitor, full curve]
COC(=O)c1nnn(CC(=O)Nc2c(C)cccc2C)c1N	–	inconclusive [inhibitor, partial curve, poor fit]
CCOC(=O)C1NN=C(C(=O)c2ccccc2)C1c1ccc(OC)cc1 (stereo not given)	–	inconclusive [inhibitor, single point]
Fc1ccc(CSc2nncn3c2cc2occc23)c(Cl)c1	–	inconclusive [inhibitor, full curve, poor fit]
COc1ccc2c(c1)C(c1ccccc1)=NNC(c1ccco1)=N2	inactive: -9.39%	–
Cc1onc(-c2ccccc2)c1CNC(=O)Nc1cccc(Cl)c1	inactive: -8.04%	–
O=C(/C=C/c1cccnc1)c1ccc(F)c(F)c1	inactive: -5.37%	–
CN(c1ccc(C(=O)NCCSC(C)(C)C)cc1)S(=O)(=O)c1ccccc1	inactive: 4.5%	–
CCC(CC)C1C(C#N)=C(N)Oc2c1c(=O)oc1ccccc21 (stereo not given)	inactive: -5.86%	–
COc1ccc(NC(=O)COC(=O)c2ccc(O)cc2)c([N+](=O)[O-])c1	–	inconclusive [inhibitor, full curve, poor fit]
Cc1cccc(C)c1NC(=O)CSc1nnc([C@@H]2CCCN2C(=O)OC(C)(C)C)o1	–	inconclusive [inhibitor, partial curve, poor fit]
CC1(C)CC(=O)c2cc(C(=O)N3CCN(CCO)CC3)c(=O)n(-c3ccc(Cl)cc3)c2C1	–	inconclusive [inhibitor, full curve, poor fit]
Cc1ccnc(NC(=O)C2CCCN(S(=O)(=O)c3cnc[nH]3)C2)c1 (stereo not given)	–	inconclusive [inhibitor, full curve, poor fit]
COc1cccc(/C=C2\SC(=S)N(CCC(=O)NCCc3ccc(O)cc3)C2=O)c1	inactive: -0.0362%	–
O=C(NCCCN1CCN(Cc2ccccc2)CC1)C1CCN(c2nnc(-n3cccc3)s2)CC1	–	inconclusive [inhibitor, partial curve]
O=C(CSc1ccc2nnc(-c3ccccc3)n2n1)NCc1ccc2c(c1)OCO2	–	inconclusive [inhibitor, full curve]
COCC(=O)Nc1nc2n(n1)C(c1ccccc1)CC(c1ccc(OC)cc1)N2 (stereo not given)	–	inconclusive [inhibitor, partial curve, poor fit]
O=S(=O)(NCCc1ccccn1)c1ccc(F)c(F)c1	–	inconclusive [inhibitor, full curve]
CN(C)CCN(C(=O)c1ccc2c(c1)OCCO2)c1nc2cc3c(cc2s1)OCO3	inactive: -0.0948%	–
c1cncc(-c2nc(N3CCOCC3)c3c4c(sc3n2)CCC4)c1	inactive: 2.76%	–
O=C1CC(=O)N(c2ccccc2)C(=O)N1c1ccccc1	–	inconclusive [inhibitor, partial curve, poor fit]
